PubChem BioAssay AID488969 (Vanderbilt High Throughput Screening Facility, 2010)
The full ranking holds about 110,000 compounds; the median of “z-score” is about -0.1, and the highest 2% start at about 2. Some of the results follow. The source made the active and inactive calls.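 The calls were made as follows: active = z-score in the third read window above 3 or below -3; inactive = the rest.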

Molecular target: Metabotropic glutamate receptor 8 (Rattus norvegicus) (UniProt P70579)
Experiment: mGluR8 Gi/Go-coupled signaling modulation – cell-based, rat, thallium flux, HTS, primary screen (AID 488969)
Details: HEK293 rat mGluR8, GIRK (G protein-gated inwardly rectifying potassium channel) thallium flux, FluoZin2; at 10 µM; stronger effect = higher value; submaximal glutamate (EC20) added with thallium

Sequence of UniProt P70579 (P70579 whole entry, looked up): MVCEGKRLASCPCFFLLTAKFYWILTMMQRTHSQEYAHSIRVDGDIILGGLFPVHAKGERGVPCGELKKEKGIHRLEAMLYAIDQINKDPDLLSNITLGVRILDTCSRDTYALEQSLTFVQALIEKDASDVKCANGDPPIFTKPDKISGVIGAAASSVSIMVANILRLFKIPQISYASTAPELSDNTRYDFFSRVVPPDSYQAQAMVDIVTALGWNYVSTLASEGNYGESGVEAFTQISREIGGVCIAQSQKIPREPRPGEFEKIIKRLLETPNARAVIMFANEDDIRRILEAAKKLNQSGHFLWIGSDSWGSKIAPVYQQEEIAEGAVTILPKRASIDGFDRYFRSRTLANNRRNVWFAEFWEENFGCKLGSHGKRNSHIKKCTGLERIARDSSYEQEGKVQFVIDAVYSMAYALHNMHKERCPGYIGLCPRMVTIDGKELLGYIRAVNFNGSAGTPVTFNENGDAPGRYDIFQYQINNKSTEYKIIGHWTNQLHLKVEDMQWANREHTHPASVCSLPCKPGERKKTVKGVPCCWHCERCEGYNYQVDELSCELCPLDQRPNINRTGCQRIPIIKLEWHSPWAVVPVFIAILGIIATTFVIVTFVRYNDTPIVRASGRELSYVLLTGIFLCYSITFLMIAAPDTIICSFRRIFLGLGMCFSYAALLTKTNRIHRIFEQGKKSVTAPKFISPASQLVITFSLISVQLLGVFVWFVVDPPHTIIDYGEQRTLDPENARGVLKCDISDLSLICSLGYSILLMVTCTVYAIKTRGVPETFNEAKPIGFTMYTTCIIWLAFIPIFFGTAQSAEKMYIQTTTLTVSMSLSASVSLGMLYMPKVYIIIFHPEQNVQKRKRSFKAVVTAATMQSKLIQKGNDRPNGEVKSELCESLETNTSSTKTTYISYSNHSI

SMILES	z-score
COc1cccc(C(=O)Nc2ccc(NC(=O)C(C)C)nc2)c1	0.794
O=C(Nn1c(=O)[nH]c2ccccc2c1=O)c1ccco1	0.0633
O=C(CSC1CC(=O)N(CCc2ccccc2)C1=O)Nc1cccc(Cl)c1 (stereo not given)	0.182
CCc1ccccc1NC(=O)/C(C#N)=C/c1ccc(Sc2ccccc2)o1	0.568
COc1cccc(CNCCNC(=O)c2ccco2)c1OC	1.75
CCCN(CCC)C(=O)CSc1nc2ccccc2c(=O)n1CC1COc2ccccc2O1 (stereo not given)	-0.405
Cn1cc(CC(=O)N2CCN(c3ccc(Cl)cc3)CC2)c2ccccc21	-0.261
Cc1cc(C)n(-c2ccc(C(=O)Nc3cc(C(F)(F)F)ccc3N3CCOCC3)cc2)n1	-0.115
COc1ccc(CN(C(=O)CNC(=O)c2ccco2)C(C(=O)NC2CCCC2)c2ccco2)cc1 (stereo not given)	-0.116
COc1ccc(S(=O)(=O)N2CCN(C(=O)c3ccco3)CC2)cc1OC	-0.51
COC(=O)c1ccc(Oc2nc(C(N)=O)cc(-c3ccccc3)n2)cc1	0.535
CCOc1cc(/C=N\Nc2ccc([N+](=O)[O-])cc2)ccc1OCC(=O)Nc1ccc(C)c(C)c1	-0.364
CC(=O)Oc1ccc(NC(=O)CSc2ccccc2)cc1	0.0117
CCOc1ccccc1NS(=O)(=O)c1cccs1	0.00014
COc1ccc(NC(=O)c2ccc3ccccc3c2)cc1NS(=O)(=O)c1ccc(F)cc1	-0.319
CN(C)c1oc(-c2ccccc2Cl)nc1C#N	-0.276
O=C(Cn1cnc2ccccc21)NC(c1ccccc1)c1ccccc1	-0.196
COc1ccc(OC)c(CNC(=O)CCNC(=O)Cn2ccc3ccccc3c2=O)c1	0.226
CC1CCN(c2nnc(NC(=O)Cn3c(=O)oc4ccccc43)s2)CC1	-0.363
COc1cccc(C(=O)NC2CC3CCCC(C2)N3CC(=O)Nc2ccccc2)c1 (stereo not given)	-0.453
Cc1ccc(CN(c2ccc(C(=O)Nc3ccc4c(c3)OCO4)cc2)S(C)(=O)=O)cc1	0.0406
Cn1cc(Cl)c(C(=O)N/N=C/c2ccc(OS(=O)(=O)c3ccccc3)cc2)n1	-1.67

SMILES	z-score
COc1cccc(-n2cnnn2)c1	-0.275
COc1ccccc1NC(=S)NCCc1ccc(Cl)cc1	active: 3.06
Cc1nn(CCOc2ccccc2)c(=O)n1-c1c(F)cccc1F	-0.00666
COc1ccc(NS(=O)(=O)c2ccc(-n3nnc4ccccc43)c([N+](=O)[O-])c2)cc1	-0.0539
CCCCN(c1ccccc1)S(=O)(=O)c1ccc2c(c1)CCN2C(=O)CCC(=O)O	-0.65
C=C(C)CSc1cc(C)c(C#N)c2nc3ccccc3n12	-0.665
Cc1cc2oc(=O)cc(C)c2c(=O)o1	0.681
CCN(CC(=O)NC(c1ccccc1)c1ccccc1)Cc1nc2ccccc2c(=O)[nH]1	-0.654
CCOc1ccccc1C(=O)NCCCn1ccnc1	0.199
CC(=O)Nc1ccc(S(=O)(=O)N2CCN(c3ccc([N+](=O)[O-])c(NCCN4CCOCC4)c3)CC2)cc1	-0.0274
CCOc1ccc(C(=O)N[C@H](C(=O)Nc2cccc(S(=O)(=O)N3CCCCC3)c2)C(C)C)cc1	-0.0313
Cc1cccc(C(C)C)c1NC(=O)c1ccc(CN(c2ccccc2)S(=O)(=O)c2ccccc2)cc1	-0.0858
Cc1ccc(NC(=O)C(c2ccc(Cl)cc2)N2CCCCC2)cc1 (stereo not given)	-0.13
Cc1oc2cc(O)cc(O)c2c(=O)c1-c1ccc2c(c1)OCCCO2	0.257
CCOc1ccc(N(CC(=O)NCc2ccc(OC)cc2)S(=O)(=O)c2c(C)noc2C)cc1	-0.0221
C#CCOc1ccc(Br)cc1/C=N/O	-0.165
COc1ccc(-c2cc(=O)[nH][nH]2)cc1	0.0391
O=C1c2ccccc2-c2ccc(C(=O)N3CCOCC3)cc21	-0.391
COc1ccc(Cc2nc(C(=O)NCc3ccccc3OC)cs2)cc1	-0.237
COc1ccc(F)cc1CN1CCN(C(=O)CCC(=O)Nc2nnc(C(C)C)s2)CC1	-0.059
CC(OC(=O)CN1C(=O)C2CCCCC2C1=O)C(=O)Nc1ncc(Cl)cc1Cl (stereo not given)	0.031
O=C(COC(=O)CNC(=O)c1sc2ccccc2c1Cl)Nc1c(Cl)cc(Cl)cc1Cl	0.172

SMILES	z-score
COc1ccc(Cl)cc1NC(=O)C1CCCN(S(=O)(=O)c2cccc3nonc23)C1 (stereo not given)	0.0493
COc1ccc(-c2cc(-c3ccccc3O)[nH]n2)cc1	-0.217
O=C(/C=C/c1ccccc1)Nn1cnnc1	-0.201
C=CCOC(=O)C1CC=CCC1C(=O)Oc1ccc(F)cc1F (stereo not given)	-0.407
COc1ccc(C(=O)Nc2scc(-c3ccc(Cl)cc3Cl)c2C(N)=O)cc1	-0.0402
CCOc1ccc(NC(=O)COc2ccc(C(=O)NC3CCCc4ccccc43)cc2OC)cc1 (stereo not given)	-0.402
Cc1cc(NCc2ccccn2)nc2ccccc12	-0.385
Cc1ccc(CN2CC(C(=O)Nc3cc(S(C)(=O)=O)ccc3Cl)CC2=O)cc1 (stereo not given)	-0.258
COc1ccc(Nc2sc(C(=O)Nc3cccc(Cl)c3)c(N)c2C(=O)Nc2ccccc2OC)cc1	0.0963
COc1ccc(NC(=O)CN2CCCC(C)C2)c([N+](=O)[O-])c1 (stereo not given)	-0.424
NS(=O)(=O)c1ccc(Nc2nc(-c3ccc4ccccc4c3)cs2)cc1	0.483
CC12CC(NC(=O)N1CCc1ccccc1)c1cc(Cl)ccc1O2 (stereo not given)	0.322
Cc1nc2ccc(S(=O)(=O)NC(C(=O)N3CCCCCC3)C(C)C)cc2s1 (stereo not given)	-0.161
N/C(=N\OS(=O)(=O)c1ccc(Br)cc1)c1ccncc1	-0.306
OCCCCNCc1ccc(OCc2ccccc2Cl)cc1	2.17
CCOC(=O)C1=C(C)N(C)C(=S)NC1c1ccc(Cl)cc1Cl (stereo not given)	-0.073
Cn1cc(C(=O)C(F)(F)F)c2ccccc21	-0.565
COc1ccc(/C=N/NS(C)(=O)=O)c(OC)c1	-0.0153
CCN1CN(Cc2ccccc2)CNC1=S	-0.0751
Cc1ccc(CSc2nc3c(cc2C#N)CCC3)cc1	-0.139
O=C(Nc1ccc(N=Nc2ccccc2)cc1)c1ccccc1Cl	0.995
N/C(=N\NC(=O)c1cccs1)c1cc2ccccc2oc1=O	-0.117

SMILES	z-score
Cc1ccc(S(=O)(=O)c2nc(S(C)(=O)=O)sc2NCc2ccc3c(c2)OCO3)cc1	-0.437
COc1ccccc1CNC(=O)C1COc2ccccc2O1 (stereo not given)	0.216
Cc1nn(CCOc2ccccc2)c(=O)n1-c1ccccc1	0.421
O=C(c1ccccc1)N1N=C(c2ccccc2)CC1c1ccc2nccnc2c1 (stereo not given)	-0.422
COc1ccc(-c2nnc(SCCC(=O)O)n2C)cc1OC	0.0273
NC(=O)c1ccc(N2CCCCC2)c(N2C(=O)CCC2=O)c1	-1.02
COc1ccccc1C(=O)Nc1ccc(S(=O)(=O)N2CCOCC2)cc1	-0.0855
CCOc1ccc(Br)cc1/C(C)=N\NC1=NCCN1	active: 3.75
CCCNC(=O)Cn1cnc2sc(C(=O)N3CCCC(C(=O)OCC)C3)c(C)c2c1=O (stereo not given)	-1.05
CC(=O)c1cccc(NC(=O)c2ccc(N(Cc3ccccc3)S(C)(=O)=O)cc2)c1	-0.207
Cc1ccc(C)c(S(=O)(=O)N2CCN(CC(=O)Nc3sccc3C#N)CC2)c1	-0.11
COc1ccc(C(CC(=O)c2ccccc2)C2CCCCC2=O)cc1 (stereo not given)	0.759
O=C(Nc1ccc(OCc2ccccc2)cc1)c1cccnc1	0.141
COc1ccc(N(C(=O)c2ccc(C)cc2)S(=O)(=O)c2cccs2)cc1	-0.0765
COc1ccc2c3c(c(=O)oc2c1OCC(=O)C(C)(C)C)CCCC3	-0.189
CCCOc1ccc(C2NC(=S)NC(c3ccccc3)=C2C(=O)Nc2ccc(C)cc2)cc1OC (stereo not given)	-0.936
Cc1ccc(C(=O)N(c2ccccn2)C(C)c2ccco2)cc1C (stereo not given)	-0.0819
CCOC(=O)c1c(-c2ccc(OCC)cc2)csc1NC(=O)CCN1C(=O)c2ccccc2C1=O	-0.435
COc1ccc(/C=N/NC(=O)CNC(=O)COc2ccccc2)cc1	0.338
Nc1nnc(SCc2cc3c(cc2Cl)OCO3)s1	0.235
COc1cc(/C=C/C(=O)O)cc(S(=O)(=O)NCCO)c1OC	-0.386
O=C(CSc1nnc2ccccn12)NC(=O)NC1CCCC1	-0.0985

SMILES	z-score
Cc1nn(C)c(Oc2cccc(Cl)c2)c1C=O	-0.19
C=CC[n+]1c(-c2ccc(OCC)cc2)csc1NNC(=O)Nc1ccccc1	0.554
O=C(CNC(=O)OCc1ccccc1)Oc1cc2oc(=O)cc(-c3ccccc3)c2cc1Cl	-0.11
COc1cccc(-n2nnnc2SCC(=O)NCc2ccco2)c1	-0.324
Cc1cccc(NC(=O)CNc2cc(C)ccc2C)c1	0.589
CCOc1ccc(S(=O)(=O)N(C)c2ccc(OCC(=O)NCc3ccco3)cc2)cc1	-0.248
CC12COC3(C(=O)Nc4cccnc4)CC1CCC32C (stereo not given)	-0.361
COc1ccc(OCCN(C)Cc2ccccc2)cc1	0.191
Cc1cc(C(=O)NCCC2=CCCCC2)c(C)o1	-0.273
Cc1ccc(CNC(=O)C(CCC(N)=O)NC(=O)OCc2ccccc2)cc1 (stereo not given)	-0.289
CC1CCCN(C/C=C/c2ccccc2[N+](=O)[O-])C1 (stereo not given)	0.347
Cc1ccc([N+](=O)[O-])cc1NC1OC(CO)C(O)C1O (stereo not given)	-0.337
Cc1cc(-c2ccccc2)nc(N2CCC(C(=O)NCC3CCCCC3)CC2)n1	0.452
O=C(Nc1cccc(Cl)c1)Nc1nnc(CC2=CCCCC2)s1	0.419
Cc1ccc(-n2c(SCC(=O)N3c4ccccc4Sc4ccccc43)nnc2-c2ccncc2)cc1	-0.152
O=C(Nc1nc(=S)ss1)c1c(F)cccc1F	-0.588
Cc1c(C(=O)N2CCOCC2)sc(NC(=O)c2ccc3c(c2)OCO3)c1C#N	-0.0461
N#CCSCC(=O)Nc1ccc(F)cc1	0.078
CN(C)c1ccc(/C=N/NC(=O)CCC(=O)NCc2ccccc2)cc1	-0.256
N=c1c(-c2nc3ccccc3[nH]2)cc(C(=O)c2cccs2)nn1-c1ccc(Cl)cc1	-0.263
CC(C)Cc1cc(C(=O)N2N=C(C(F)F)CC2(O)C(F)F)c2ccccc2n1 (stereo not given)	-0.451
O=C(COc1ccc(Br)cc1)Nc1ccncc1	0.0078
